Among the data in PubChem BioAssay (NCATS) are max response, AC50 and viability change values, retold here.

Structures are written as SMILES. “And” between values parts separate entries of the source, which are not always exact repeats. Equal values may be shown once. The list shows a part of the results. These are further read-outs of the screen, such as a control signal, another cell line or another target. No call is given for them. Most of these compounds were active or inconclusive in the main read-out, so they are no random draw. For part of these data: Words in brackets tell the shape of the fitted curve; partial curves, single points and poor fits give uncertain potencies.

A short description of test [1]: qHTS Assay for Lipid Storage Modulators (AID 1519). As to conditions: Drosophila S3 cells, BODIPY lipid droplet/cell ratio, laser cytometry, cells loaded with oleic acid. Summed up:
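Cells seeded at 5,000 per well were treated with compounds over a concentration series and loaded with oleic acid (400 uM, as added). Lipid droplet fluorescence (488 nm excitation, 500-530 nm channel) was read by laser-scanning cytometry and normalized to 20 uM Triacsin C.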

A short description of test [2]: qHTS Assay for Modulators of Human Peripheral Myelin Protein 22 (PMP22) Expression/Activity (AID 1967). To be noted: Cell-based PMP22 reporter, dual-color luciferase ratio. The method, boiled down: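 Mouse MSC80 Schwann cells carrying Pmp22 promoter–green click beetle luciferase plus EF-alpha–red luciferase control, dosed 24 h at 37 °C. Dual-filter luminescence, overlap-corrected; %Activity from green/red ratio normalised to untreated cells, concentration-response curves fitted.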

Test [3] is described as follows: qHTS Validation Assay to Find Inhibitors of Chronic Active B-Cell Receptor Signaling (AID 485345). To be noted: ABC-DLBCL cells, chronic BCR signaling reporter. The method, boiled down: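 TMD8 ABC-DLBCL cells with dox-inducible green luciferase–IκBα fusion and red native luciferase; compounds 46 uM–3 nM, 4 h at 37C with doxycycline in 0.5% FBS IMDM. Green/red ratio normalized to basal and 10 uM MG-132.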

Test [4] can be described thus: Nrf2 qHTS screen for inhibitors: Validation (AID 493153). As to conditions: A549 ARE-Fluc reporter, 18-24 h; AC50: CellTiter-Fluor fluorescence read, measured here: cytotoxicity CellTiter-Fluor AC50; viability change: measured here: cytotoxicity max response. The method, boiled down: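 Dose-response validation uses reporter A549 cells with firefly luciferase under an antioxidant response element. Compounds stay on cells 18-24 h at 37°C, and luminescence indicates Nrf2-driven transcription.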
For orientation: qHTS replaces the single test concentration by a dilution series.

Where [5] appears, read: measured here: cell count channel max response.
Setting [6] is: measured here: cell number channel AC50.
The mark [7] stands for this setting: measured here: lipid (BODIPY) channel AC50.
Setting [8] is: measured here: lipid channel max response.
Setting [9] is: measured here: red reporter channel AC50, EF-alpha promoter control reporter in MSC80 mouse Schwann cells.
The mark [10] stands for this setting: measured here: CBR control luciferase (viability counter).
Tags give direction and shape of the fitted curve.

Consider `O=C(O)c1nn(Cc2ccc(Cl)cc2Cl)c2ccccc12`, for which the max response in test [1] (setting [5]) came out at 39.7%; in test [1] (setting [8]) it was 50.6%. For the same compound, the AC50 in test [1] (setting [6]) is 14.1 µM [rising, partial curve]; in test [1] (setting [7]) it was 15.8 µM [rising, partial curve]; in test [2] (setting [9]), 95.3 µM [falling, single point]; in test [3] (setting [10]) it was 7.31 µM [rising, partial curve]. For the same compound, the viability change in test [4] is -0.0475%.
Regarding `CCCN1CCO[C@@H]2c3cc(O)ccc3OC[C@H]21`, the max response in test [1] (setting [5]) is -9.03% and 7.52%; in test [1] (setting [8]) it was -6.32% and 9.32%. Further, the AC50 was 22.4 µM [falling, single point] in test [1] (setting [6]); 22.4 µM [falling, single point] in test [1] (setting [7]); 6.51 µM [rising, single point] in test [3] (setting [10]).
With `O=c1c(O)c(-c2ccc(O)c(O)c2)oc2cc(O)cc(O)c12`, the max response in test [1] (setting [5]) was -29.1% and -49.6% and 34.2%; in test [1] (setting [8]), -34.2% and -63.5% and 35.3%. For the same compound, the AC50 in test [1] (setting [6]) was 25.1 µM [falling, single point]; in test [1] (setting [7]) it was 22.4 µM [falling, single point] and 39.8 µM [falling, partial curve, poor fit] and 25.1 µM [falling, single point]; in test [2] (measured here: green reporter channel AC50, mouse Pmp22 promoter in mouse Schwann cells) it was 6.01 µM [rising, single point]; in test [2] (setting [9]) it was 47.8 µM [falling, partial curve, poor fit]; in test [3] (measured here: CBG/CBR ratio read-out), 23.1 µM [falling, single point].
Turning to `CN1C2CCC1CC(OC(c1ccccc1)c1ccccc1N)C2` (centres undefined), the max response in test [1] (setting [5]) was -11.4%; in test [1] (setting [8]), -5.52%. Moreover, the AC50 is 7.08 µM [falling, partial curve, poor fit] in test [1] (setting [6]); 12.6 µM [falling, partial curve, poor fit] in test [1] (setting [7]); 84.9 µM [falling, single point] in test [2] (setting [9]).

A word on the AC50: it is the concentration giving half of the maximal activity seen.
